Measurements as given in publication PMC4336329 (PLoS ONE, 2015).
Screen size: about 310,000 compounds; about 14,000 (4.5%) showed an effect of 50% or more. Effects have a minus sign here. The list shows a part of the results.

target: human ether-à-go-go-related gene (hERG) potassium channel (human, UniProt Q12809); assay: primary screen, population patch clamp on CHO cells stably expressing hERG
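Also: peak tail current of the secondary pulse compared with the same well before compound.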

Chain of human ether-à-go-go-related gene (hERG) potassium channel (Q12809 whole entry, looked up): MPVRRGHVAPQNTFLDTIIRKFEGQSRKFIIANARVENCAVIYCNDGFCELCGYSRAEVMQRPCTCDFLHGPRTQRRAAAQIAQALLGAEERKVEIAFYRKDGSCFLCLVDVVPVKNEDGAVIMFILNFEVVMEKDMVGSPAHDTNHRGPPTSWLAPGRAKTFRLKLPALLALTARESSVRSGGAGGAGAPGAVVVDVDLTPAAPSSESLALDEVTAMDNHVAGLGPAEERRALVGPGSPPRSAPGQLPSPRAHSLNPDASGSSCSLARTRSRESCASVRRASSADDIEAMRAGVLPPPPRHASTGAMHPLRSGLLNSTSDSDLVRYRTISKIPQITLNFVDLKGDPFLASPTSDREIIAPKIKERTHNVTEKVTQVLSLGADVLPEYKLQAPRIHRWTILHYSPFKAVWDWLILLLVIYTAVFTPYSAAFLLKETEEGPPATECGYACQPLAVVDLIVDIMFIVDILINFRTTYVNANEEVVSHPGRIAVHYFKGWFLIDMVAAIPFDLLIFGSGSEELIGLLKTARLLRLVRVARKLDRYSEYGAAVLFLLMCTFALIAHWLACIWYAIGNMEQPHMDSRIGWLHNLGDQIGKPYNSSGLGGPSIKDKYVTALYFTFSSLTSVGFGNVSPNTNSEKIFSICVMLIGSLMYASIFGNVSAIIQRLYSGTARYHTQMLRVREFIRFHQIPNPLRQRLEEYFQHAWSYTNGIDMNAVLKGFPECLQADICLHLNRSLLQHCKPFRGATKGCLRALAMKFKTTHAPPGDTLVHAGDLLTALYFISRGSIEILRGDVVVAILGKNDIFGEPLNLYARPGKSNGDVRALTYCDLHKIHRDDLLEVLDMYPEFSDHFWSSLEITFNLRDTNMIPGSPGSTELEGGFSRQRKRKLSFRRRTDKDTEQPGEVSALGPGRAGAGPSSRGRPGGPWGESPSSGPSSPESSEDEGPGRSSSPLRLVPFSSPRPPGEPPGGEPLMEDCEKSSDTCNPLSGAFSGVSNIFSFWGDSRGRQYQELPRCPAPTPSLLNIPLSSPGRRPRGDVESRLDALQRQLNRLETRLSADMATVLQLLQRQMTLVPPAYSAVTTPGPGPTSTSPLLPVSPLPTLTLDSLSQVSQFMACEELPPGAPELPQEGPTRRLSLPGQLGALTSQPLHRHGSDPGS

SMILES | hERG current change (%, negative = inhibition) at 10uM
COc1ccc(NC(=O)C(=O)NCc2ccncc2)c(OC)c1 | 2.68%
Cc1cccc(N2CCN(C(=O)COc3cc4oc(=O)cc(C)c4cc3Cl)CC2)c1C | 13.9%
Cc1cc(C(=O)OCC(=O)c2ccc3c(c2)OCCO3)c(C)o1 | -7.97%
COc1ccc(NC(=O)c2ccccc2Oc2ccccc2)c(OC)c1 | 1.42%
CC(=O)Nc1ccc(SCC(=O)Nc2ccccc2-c2ccccc2)cc1 | -10.6%
Cc1ccc(-n2c(C)cc(/C=N/NC(=O)c3ccncc3)c2C)c(C)c1 | 1.67%
C/C(=N\NC(=O)c1ccc(N2CCCC2=O)cc1)c1ccncc1 | 26.7%
COC(=O)c1ccc(OC(=O)C23CCC(C)(C(=O)O2)C3(C)C)cc1 (stereo not shown) | -4.97%
Cc1ccc(C)c(C(=O)CCC(=O)O)c1 | 5.2%
CC(=O)c1ccc(N2CCCC2)c(F)c1 | 1.88%
COc1ccc(NC(=O)c2sc3nc(C)cc(C)c3c2N)cc1 | 28.6%
CC(C)(C)NC(=O)NC(=O)COC(=O)C1(C)CC1(Cl)Cl (stereo not shown) | -1.13%
N#Cc1ccsc1NC(=O)C1=COCCO1 | -0.941%
COC(=O)c1cc2ccsc2n1Cc1cc(=O)n2ccccc2n1 | -5.33%
S=c1[nH]nc(-c2cccs2)n1C1CCCCC1 | 7.17%
CCCCC1=CC2=CC(=O)C(C)(OC(=O)CC)C(=O)C2=CN1CCOC (stereo not shown) | -5.6%
COc1cc(/C=N/NC(=O)C(N)=O)cc(OC)c1O | 23.2%
O=C(C(c1ccccc1)c1ccccc1)N1CCN(Cc2ccccn2)CC1 | -11%
CC(C)C[C@H](NC(=O)c1cc2cc(Cl)ccc2n1C)C(=O)N1CCC(C(=O)O)CC1 | 13.5%
Cc1cccn2c(Nc3ccccc3)c(-c3ccccn3)nc12 | 1.81%
CCCn1c(SCC(=O)N2CCCCC2)nc2c1c(=O)n(C)c(=O)n2C | 16.9%
COc1ccc(-c2oc3ccc(N4CCOCC4)cc3c2C#Cc2ccc(N)cc2)cc1 | 17.3%
COc1cc(C(C#N)N2N=C(c3ccccc3)CC2c2ccccc2)ccc1O (stereo not shown) | -14.2%

SMILES | hERG current change (%, negative = inhibition) at 10uM
COc1cccc(C(=O)NC2CCN(C(=O)N3CCCCC3)CC2)c1 | 19.5%
N/C(=N/OC(=O)c1ccccc1F)c1nonc1N | 21.3%
C=CCNC(=O)c1onc(CSc2cccc(C)c2)c1C(=O)O | -49.6%
Cc1cccc(NC(=O)CSc2nnc(NC(=O)C3CCC3)s2)c1 | 22.9%
COC(=O)CC1C(=O)NCCN1C(=O)c1ccc(S(=O)(=O)N2CCOCC2)cc1 (stereo not shown) | 8.9%
Cc1ccc(NC(=O)Cn2c(CCC(=O)O)ccc2-c2cccs2)cc1Cl | -75.3%
Cc1ccc(-c2ccc3c(c2)S(=O)(=O)c2ccccc2C3=O)cc1 | 4.82%
CCNC(=O)NC1(C(=O)N2CCC(Cc3ccccc3)CC2)CCCCC1 | 21.7%
Cc1ccc(-c2nn(C)c(=O)c3ccccc23)cc1CNS(C)(=O)=O | -2.75%
O=S(=O)(Nc1ccc(-c2ccc3nncn3n2)cc1)c1cc(F)ccc1F | -6.27%
CC(C(=O)NC1C=CS(=O)(=O)C1)N1C(=O)/C(=C/c2ccc(Cl)cc2)SC1=S (stereo not shown) | -12.3%
COc1ccc(CCN(C)CC(O)COc2c(C)ccc(C)c2C)cc1OC (stereo not shown) | -76%
COCCNC(=O)/C(C#N)=C/c1cccc(OCc2ccccc2)c1 | -1.17%
Cc1ccc(Cl)c(OCC(O)CN(CCO)CCO)c1 (stereo not shown) | -0.678%
C=CCNc1ccc(F)c(F)c1N1CCCCCC1=O | 12.7%
CCCC1C2C(=O)N(c3cccc(C)c3)C(=O)C2ON1c1ccccc1 (stereo not shown) | -7.73%
CCOC(=O)c1nc(-c2ccccc2)sc1C(C)=O | -0.873%
COc1cc(O)oc1C=Nc1ccccc1 | -18.3%
c1ccc(C2CC(c3ccccc3)C(c3ccccc3)N2)cc1 (stereo not shown) | -1.19%
CCc1nc2ccc(C(=O)Nc3cccc(C(C)=O)c3)cc2nc1CC | 1.42%
CC1CCCN(c2nc3nonc3nc2Nc2ccccc2F)C1 (stereo not shown) | 32.4%
CCCCOc1ccccc1NC(=O)CC1Nc2ccccc2NC1=O (stereo not shown) | 5.96%
CC1CCN(C(=O)Oc2ccccc2)CC1 | 26.4%

SMILES | hERG current change (%, negative = inhibition) at 10uM
Cc1ccc(/C=N/NC(=O)CSc2nc3ccccc3n2Cc2ccc(Cl)cc2)o1 | -16.2%
CC(Nc1nc(-c2ccc(F)cc2)cs1)c1nc2cc(C(F)(F)F)ccc2n1CCCO (stereo not shown) | -42.5%
Cc1cc(OCC(=O)OCC(=O)N(C)c2c(N)n(Cc3ccccc3)c(=O)[nH]c2=O)ccc1Cl | -0.867%
CC(C)(C)n1ncc2c(=O)n(Cc3cccc(Cl)c3)cnc21 | -19.3%
O=C(NNC(=O)C1CCN(S(=O)(=O)c2c(Cl)cccc2Cl)CC1)c1ccccc1O | -24.6%
C=CCN=C1SCC(=O)N1S(=O)(=O)c1ccc(C)cc1 | -16.3%
O=C(O)C1Nc2c(C(F)(F)F)ccc(Cl)c2C2C=CCC12 (stereo not shown) | 20.1%
CC(C)(C)NC(=O)c1ccc2nccnc2c1 | 7.59%
CCOC(=O)C1=C(c2ccccc2)NC(SCC)=C(C#N)C1c1cccnc1 (stereo not shown) | 7.4%
Cc1cccc(NCc2n[nH]c(=S)n2-c2ccccc2)c1 | 4.73%
CCOC(=O)CNc1nc(Oc2ccc(=O)n(C)n2)nc(N(CC)CC)n1 | 0.791%
CN(C(=O)c1cccc(Nc2ccc(-c3ccc4c(c3)OCCO4)nn2)c1)C1CCCCC1 | 2.62%
Cc1cccc(/C=N/n2c(-c3ccccc3)n[nH]c2=S)c1O | 14.8%
Cc1cccc(N(C(=O)Nc2ccccc2)C2=NCC(C)S2)c1 (stereo not shown) | -1.06%
CCCCCCC(=O)Nc1nc(C)c(-c2csc(Nc3cccc(OC)c3)n2)s1 | 18%
CN(C)C=O.COc1cc(/C=C/c2nc3ccccc3c(=O)n2-c2ccc(O)cc2)ccc1O | 14.1%
c1ccc(N(c2ccccc2)c2nc(-n3ccnc3)nc(-n3ccnc3)n2)cc1 | -24.2%
COc1ccccc1-c1n[nH]c(=S)o1 | 21.9%
O=C(CCNC(=O)c1ccccc1Cl)Nc1cc(C(F)(F)F)ccc1Cl | 22.2%
COc1cc(C(=O)NCc2cc3cc(Cl)ccc3n2C)cc(OC)c1OC | 17.3%
CC(=O)Cn1c(=O)oc2ccccc21 | 4.02%
Brc1cccc(-c2n[nH]c(-c3ccccc3)n2)c1 | 2.27%
COc1cccc(C(=O)N2CCN(Cc3ccccc3C(F)(F)F)CC2)c1.O=C(O)C(=O)O | -15.6%

SMILES | hERG current change (%, negative = inhibition) at 10uM
COCCNc1nc2c(c(=O)n(Cc3ccccc3F)c(=O)n2C)n1C | -15.8%
Cc1oc2cc(O)ccc2c(=O)c1Oc1ccccc1Br | 8.02%
CN(C(=O)Oc1cccc2cccnc12)c1ccccc1 | 13.3%
COc1ccc2cc(C(=O)NCc3ccco3)c(=Nc3ccc(C(=O)O)cc3)oc2c1 | -31.8%
CCOC(=O)Cn1cc(C(=O)OC)c2ccccc21 | 16.5%
O=C(COC(=O)c1ccc(Br)o1)c1ccc(S(=O)(=O)N2CCCCC2)cc1 | 14%
COc1ccc(NS(=O)(=O)c2ccc(NC(=O)c3ccc(CN4CCOCC4)cc3)cc2)cc1 | 27%
Cc1ccccc1NC(=O)COC(=O)c1c[nH]c(=O)[nH]c1=O | 23.4%
COc1cc(NS(=O)(=O)c2ccc(OC)c(C)c2C)c(OC)cc1Cl | 13.4%
CCc1[nH]nc2c1C(C1C=CCCC1)C(C#N)=C(N)O2 (stereo not shown) | -7.62%
Cc1cc[n+](C(C)C(=O)c2ccc(-c3ccccc3)cc2)cc1.[Br-] (stereo not shown) | 5.57%
CC(CCc1ccccc1)NC(=O)CCc1cn(C)c2ccccc12 (stereo not shown) | 18.3%
Cc1ccc(OCC(=O)NCCNC(=O)c2ccccn2)cc1 | 13.1%
CCC1C(=O)N(c2nc(C)cc(C)n2)N=C1C (stereo not shown) | 7.93%
CCOC(=O)C1=C(N)Oc2c(oc(CO)cc2=O)C1c1ccc(Cl)cc1 (stereo not shown) | -7.87%
C=CCN(C(=O)CCC(=O)Nc1cc(C)on1)C(C(=O)NC1CCCC1)c1ccc(C)cc1 (stereo not shown) | 0.416%
COC(CN(C(=O)CCl)C(C(=O)NC1CCCC(C)C1C)c1ccc(C)cc1)OC (stereo not shown) | 10.1%
O=C1CC(N2C(=O)/C(=C/C=C/c3ccccc3)SC2=S)C(=O)N1c1ccccc1 (stereo not shown) | 7.04%
Cn1c(Nc2ccc(Cl)cc2)cc(=O)n(C)c1=O | 23.6%
COc1ccc(S(=O)(=O)N2CCCCC2)cc1NC(=O)COc1ccccc1 | 13.7%
COc1ccccc1NC(=O)c1ccc(NS(=O)(=O)c2cccc3cccnc23)cc1 | 9.72%
O=C(N/N=C1/CC2C=CCC12)c1ccc(Br)o1 (stereo not shown) | 16.9%
